Laboratory results published in PubChem BioAssay (NCATS).
Inconclusive means that the source gave no clear call. Such entries were picked first, then a sample of the others. A potency beside an inconclusive call is a rough fit, not a confirmed value. Active and inactive are the calls of the source. Unless noted, calls come from the whole dose curve; as a rule, active = well fitted inhibition curve with a large enough effect; inconclusive = small, poorly fitted or top-dose-only effect; inactive = no such curve, though single readings can be large or run the other way.

What was measured:
[1] = molecular target: Aldehyde dehydrogenase, mitochondrial (Homo sapiens) (UniProt P05091); experiment: qHTS for Inhibitors of the Aldehyde Dehydrogenase Family (ALDH2) Confirmatory screens (AID 2061303; active = well fitted inhibition curve with a large enough effect; inconclusive = small, poorly fitted or top-dose-only effect; inactive = no such curve, though single readings can be large or run the other way; title and protocol of this record describe different tests; note: nearly all actives have a fitted effect of over 45% in size); conditions: ALDH inhibition qHTS; activity change, negative = inhibition: at 45.4 µM (top of the series)
[2] = qHTS for Inhibitors of the Aldehyde Dehydrogenase Family (ALDH1A2, ALDH1A3, ALDH2, ALDH3A1) (AID 2061307); conditions: ALDH inhibition qHTS; activity change, negative = inhibition: at 50.3 µM (top of the series) unless noted; note: nearly all actives have a fitted effect of over 50% in size; for potency: test system not described further here
[3] = molecular target: Retinaldehyde dehydrogenase 3 (Homo sapiens) (UniProt P47895); experiment: qHTS for Inhibitors of the Aldehyde Dehydrogenase Family (ALDH1A3) Confirmatory screens (AID 2061311); conditions: ALDH inhibition qHTS; activity change, negative = inhibition: at 46 µM (top of the series); series mostly up to 46 µM; note: nearly all actives have a fitted effect of over 60% in size
[4] = molecular target: Retinal dehydrogenase 2 (Homo sapiens) (UniProt O94788); experiment: qHTS for Inhibitors of the Aldehyde Dehydrogenase Family (ALDH1A2) Confirmation screens (AID 2061314); conditions: ALDH1A2 enzyme inhibition qHTS confirmation; series mostly up to 45.9 µM; note: nearly all actives have a fitted effect of over 65% in size
[5] = molecular target: Aldehyde dehydrogenase 1A1 (Homo sapiens) (UniProt P00352); experiment: qHTS for Inhibitors of the Aldehyde Dehydrogenase Family (ALDH1A1) Confirmatory screens (AID 2061316); conditions: ALDH inhibition qHTS; activity change, negative = inhibition: at 47.3 µM (top of the series); series mostly up to 47.3 µM; note: nearly all actives have a fitted effect of over 65% in size
Potency is the fitted concentration of half-maximal effect; tags give direction and shape of the fitted curve.

| SMILES | Potency [1] | Potency [2] | Potency [3] | Potency [4] | Potency [5] |
| --- | --- | --- | --- | --- | --- |
| Cc1c(Cl)cccc1NS(=O)(=O)c1cc2c(cc1Cl)CCC(=O)N2 | inactive | inactive | inconclusive: 15.9 µM [inhibitor, partial curve] | active: 12.7 µM | inactive |
| COc1cc(C2Oc3c(OC)cc(CCCO[C@@H]4O[C@H](CO)[C@@H](O)[C@H](O)[C@H]4O)cc3C2CO)ccc1O (stereo not given in full) | inactive | inconclusive: 4.91 µM [inhibitor, partial curve] | inconclusive: 4.38 µM [inhibitor, partial curve] | inactive | inactive |
| COc1cccc(Nc2nc(C#N)nc(NC3CCCC3)n2)c1 | inactive | active: 10.1 µM | inconclusive: 28.3 µM [inhibitor, partial curve, poor fit] | inconclusive: 11.3 µM [inhibitor, partial curve] | inactive |
| O=C(C1CCN(Cc2ccccc2-c2ccccc2F)CC1)N1CCN(Cc2ccccc2)CC1 | inconclusive: 20 µM [inhibitor, partial curve, poor fit] | inactive | inactive | inactive | inconclusive: 22.9 µM [inhibitor, partial curve] |
| Fc1ccc(NC(=S)Nc2nnc(-c3ccncc3)s2)cc1C(F)(F)F | inconclusive: 17.9 µM [inhibitor, partial curve] | inconclusive: 28.3 µM [inhibitor, partial curve] | inconclusive: 22.5 µM [inhibitor, partial curve] | inconclusive: 25.2 µM [inhibitor, single point] | active: 5.04 µM |
